Results on 86 sequences are retold here after the supplement of paper PMC3334620.

Over roughly 33,000 sequences, “E-score (-0.5 to 0.5)” has its median near -0.012; the highest 2% begin near 0.29. The list shows a part of the results.

In this experiment the target is T1, Ybr033w (UniProt P38073).
T1 sequence: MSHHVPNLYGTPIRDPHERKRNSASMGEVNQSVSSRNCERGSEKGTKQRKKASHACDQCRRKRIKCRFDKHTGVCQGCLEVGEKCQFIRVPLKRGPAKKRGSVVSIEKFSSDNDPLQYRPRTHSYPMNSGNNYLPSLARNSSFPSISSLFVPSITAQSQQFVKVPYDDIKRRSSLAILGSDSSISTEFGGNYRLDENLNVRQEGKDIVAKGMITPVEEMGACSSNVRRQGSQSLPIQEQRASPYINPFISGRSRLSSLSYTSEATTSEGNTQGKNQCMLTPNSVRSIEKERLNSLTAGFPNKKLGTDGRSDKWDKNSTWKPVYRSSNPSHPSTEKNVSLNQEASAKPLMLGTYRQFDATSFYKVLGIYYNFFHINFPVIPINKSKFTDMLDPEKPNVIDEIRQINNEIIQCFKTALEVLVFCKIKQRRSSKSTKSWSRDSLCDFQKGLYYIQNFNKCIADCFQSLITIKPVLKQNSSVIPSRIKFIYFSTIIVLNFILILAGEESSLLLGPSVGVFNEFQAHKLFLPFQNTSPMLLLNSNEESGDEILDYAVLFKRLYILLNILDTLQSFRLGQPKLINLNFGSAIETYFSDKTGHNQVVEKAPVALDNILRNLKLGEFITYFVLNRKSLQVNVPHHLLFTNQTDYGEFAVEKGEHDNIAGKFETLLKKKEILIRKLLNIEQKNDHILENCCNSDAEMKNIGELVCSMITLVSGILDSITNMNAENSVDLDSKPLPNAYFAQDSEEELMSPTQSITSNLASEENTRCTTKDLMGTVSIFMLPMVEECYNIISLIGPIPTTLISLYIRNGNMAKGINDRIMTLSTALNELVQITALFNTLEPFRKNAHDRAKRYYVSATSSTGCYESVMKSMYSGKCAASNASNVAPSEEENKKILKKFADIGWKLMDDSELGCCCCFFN
In words: PBM E-score (8-mer binding enrichment) (E-score (-0.5 to 0.5)); higher = stronger / more preferred TF binding; most listed sequences are background and not binding sites. The settings on record: protein concentration: 200 nM; construct: GST-full length. The essentials: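 Masliner-normalised scans of fluorescent anti-GST signal were the basis for scoring. That signal came from GST-tagged yeast transcription factors applied at about 100-200 nM to double-stranded universal all-10-mer Agilent arrays on fresh or once-stripped slides. Each ungapped eight-base word, pooled with its reverse complement, received an E-score from the Universal PBM Analysis Suite.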
Take ATACGTAA: the “PBM E-score” value was 0.186.

Consider CGCAGGCA, for which the “PBM E-score” value was -0.0605.

As to CGTCACGA, the “PBM E-score” value is -0.0133.

Regarding CTCTCCCC, the “PBM E-score” value was -0.322.

On to AGGCACTC, for which the “PBM E-score” value was -0.0654.

On to GCTTTTCA, for which the “PBM E-score” value stood at 0.00885.

For the sequence CGGCTACA, the “PBM E-score” value is -0.18.

Consider AATAGATA, for which the “PBM E-score” value was found to be 0.247.

As for AATGTTGT, the “PBM E-score” value came out at 0.159.

For the sequence CTCGCGAG, the “PBM E-score” value worked out at 0.113.

As for GTCACGTA, the “PBM E-score” value was -0.0068.

Consider CGGTCCCA, for which the “PBM E-score” value is -0.224.

For CCGGCGAA, the “PBM E-score” value is -0.0463.

Consider AGTAAGTA, for which the “PBM E-score” value turned out to be 0.23.

With ACCCTGTC, the “PBM E-score” value is -0.173.

Consider AATCCGGG, for which the “PBM E-score” value amounted to 0.0731.

GGCATGAA: the “PBM E-score” value came to 0.0824.

With AGAACGCC, the “PBM E-score” value is -0.0275.

Regarding AATGTAAT, the “PBM E-score” value is 0.272.

Regarding CCGCGTCC, the “PBM E-score” value was determined as 0.0429.

For the sequence AATGCAAA, the “PBM E-score” value is 0.274.

On to GATTAACC, for which the “PBM E-score” value was found to be 0.195.

In the case of GGACGTCA, the “PBM E-score” value was -0.176.

On to GGCATCTA, for which the “PBM E-score” value was -0.00914.

Take ACAAACTA: the “PBM E-score” value came out at 0.137.

As for ATTCTTAG, the “PBM E-score” value is -0.00421.

Take ACACCCTG: the “PBM E-score” value was -0.229.

Turning to CCCCCGTC, the “PBM E-score” value is -0.353.

For the sequence AATTCTCG, the “PBM E-score” value was found to be 0.103.

Consider GATCTGGA, for which the “PBM E-score” value was 0.053.

Regarding AGCTCGAT, the “PBM E-score” value was found to be 0.0359.

Regarding GAAGCTAA, the “PBM E-score” value was 0.0197.

Regarding CTGTAAAA, the “PBM E-score” value was found to be 0.15.

Turning to GCTACTCC, the “PBM E-score” value was 0.123.

As to ACAGTATA, the “PBM E-score” value was 0.0512.

On to AAAAAATA, for which the “PBM E-score” value is 0.278.

With CGGCGAAG, the “PBM E-score” value was -0.151.

For the sequence GTATTGAA, the “PBM E-score” value was found to be 0.197.

Take TATACCAA: the “PBM E-score” value was 0.141.

For AGTTCTCA, the “PBM E-score” value is 0.115.

As for TCTGGCAA, the “PBM E-score” value is 0.0111.

Consider GCTATCAA, for which the “PBM E-score” value worked out at 0.13.

GTCTACCA: the “PBM E-score” value was -0.00406.

Turning to TGTCTCAA, the “PBM E-score” value is -0.17.

Take AACAAATC: the “PBM E-score” value amounted to 0.315.

CGCGCGTA: the “PBM E-score” value was -0.0725.

On to AGGTTATG, for which the “PBM E-score” value worked out at 0.112.

For the sequence CTACGGCC, the “PBM E-score” value is -0.241.

Take TGAATGCA: the “PBM E-score” value was 0.152.

For CGTTCCCC, the “PBM E-score” value was -0.225.

For the sequence CCGGAATC, the “PBM E-score” value was -0.0781.

Take CGGGGCAC: the “PBM E-score” value was -0.319.

Turning to ACGATTTA, the “PBM E-score” value is 0.36.

As to GGAATCCA, the “PBM E-score” value worked out at 0.0383.

As for GGTAACGA, the “PBM E-score” value is -0.159.

Turning to ACGTATGA, the “PBM E-score” value worked out at 0.131.

Turning to GAAAGCTA, the “PBM E-score” value is -0.071.

Consider GATTTTCA, for which the “PBM E-score” value came to 0.205.

Take AGGGGTAG: the “PBM E-score” value was -0.155.

With AGACAGTA, the “PBM E-score” value was determined as 0.0882.

Turning to AACGTCTG, the “PBM E-score” value was -0.0802.

With AATATCAT, the “PBM E-score” value was determined as 0.294.

As to ACTCAACT, the “PBM E-score” value was 0.126.

TCCACAAA: the “PBM E-score” value was 0.131.

With AATCCTAA, the “PBM E-score” value came out at 0.0561.

Turning to ACCCCTCC, the “PBM E-score” value is -0.236.

For the sequence AAGCCACT, the “PBM E-score” value is -0.153.

With CTAGCAAA, the “PBM E-score” value was -0.00143.

With AAGGAGAT, the “PBM E-score” value is 0.0141.

Regarding ACGAGACT, the “PBM E-score” value was -0.127.

On to CATTCGAC, for which the “PBM E-score” value is -0.0432.

Regarding CCGCAGGC, the “PBM E-score” value was -0.0484.

For ACCCTACA, the “PBM E-score” value turned out to be 0.00649.

Take AATTGGGC: the “PBM E-score” value stood at 0.0379.

With CCTAGTGC, the “PBM E-score” value was -0.0965.

As to AAGCAGAA, the “PBM E-score” value turned out to be 0.149.

Turning to CGCCCCCA, the “PBM E-score” value was -0.239.

As to AACGCGGA, the “PBM E-score” value is -0.00015.

As to GCCGGGGA, the “PBM E-score” value is -0.331.

Regarding GGAGCCAA, the “PBM E-score” value is -0.13.

Take ATAGCATA: the “PBM E-score” value was found to be 0.158.

For the sequence GCTACTAA, the “PBM E-score” value amounted to 0.00875.

Consider ATTAGGGG, for which the “PBM E-score” value was -0.222.

For the sequence ATGGTACA, the “PBM E-score” value is 0.119.

As for AGGGGTTG, the “PBM E-score” value was -0.029.

For the sequence GAAGAAGC, the “PBM E-score” value is -0.103.
